# Among all 150,000 compounds or so, about 540 (0.36%) showed an effect of 50% or more. Some of the results follow.
# System: Plasmodium falciparum
# Experiment: Primary screen in NF54 nanoGlo assay, in single point, at 2uM, 72h; a lower Z score goes with more inhibition
# Assay type: functional, Erythrocyte
# Conditions: timepoint 72 hour
Structure (SMILES),% Inhibition,Z score
C/C=C/C(N)=N/Nc1nc2ccccc2s1,-13%,1.77
COc1cc2cc(c1)C(=O)NCCCC(=O)N[C@H]1CN(C(=O)c3ccc4c(c3)CCC4)CC[C@@H]1OCc1cccc(c1)O2,-8%,1.44
CS(=O)(=O)NC1CCN(C(=O)C2CC=CCC2)C1 (stereo not given),-8%,1.4
CN(C)C(=O)N1CCN(Cc2ccc3ccccc3c2)[C@@H]2CS(=O)(=O)C[C@@H]21,-11%,1.3
COCCCn1c(C)c(C)c(S(=O)(=O)c2ccccc2)c1NC(=O)c1ccc(C)cc1,-1%,0.15
CCC(NC(=O)c1c[nH]c(C)cc1=O)C(O)c1ccccc1F (stereo not given),34%,-0.89
C[C@@H](C(=O)N1CCN(c2ccccc2F)CC1)n1nc2c(cc1=O)CCC2,10%,-1.3
COc1cc(-c2noc(C(C)(C)C)n2)ccc1OCc1cc(F)ccc1F,-9%,1.07
c1ccc(-c2nc[nH]c2C2CCCC2)cc1,-14%,2.04
O=C(NC1CCC(C(F)F)CC1)c1ccn(C(F)F)n1 (stereo not given),-2%,0.37
O=C1c2cccc3cccc(c23)C(=O)N1C(c1ccccc1)c1ccccc1,-12%,2.3
O[C@@H](Cc1nc2ccccc2s1)c1ccccc1,3%,-0.51
Cc1c(C(=O)N2C[C@H](O)[C@@H](F)C2)cnc2ccnn12,-1%,0.24
NC[C@H]1Cc2cc(-c3cccnc3)ccc2O1,3%,-0.53
C[C@@H](Cc1ccc(F)c(Br)c1)NS(=O)(=O)CC#N,-7%,0.64
O=C(NCCN1CCOCC1)C1CCN(c2ncnc3c2nc2n3CCCCC2)CC1,1%,-0.22
COc1cccc(CC(=O)Nc2nc(C)no2)c1,-10%,0.98
O=C(NC1CC1)c1ccc2ccccc2c1,-1%,0.18
Cc1cc(NC(=O)CN)ccc1Br,-9%,1.78
O=C(c1ccoc1)N1CC[C@H](Oc2cnccn2)C1,6%,-0.69
CN1C[C@H]2CC[C@@H](C1)N(Cc1cccc(OCCO)c1)C2,-13%,1.43
COCCN(C)CCCNC1CCC(C(C)(C)C)CC1 (stereo not given),-1%,0.14

Structure (SMILES),% Inhibition,Z score
O[C@H](c1ccccc1)c1nc(CCn2cnnn2)n(C2CCCCC2)n1,-4%,0.59
CC(C)NC(=O)c1ncn2c1C(=O)N(C1CC1)[C@](C)(C(=O)NCc1ccc(F)cc1)C2,-6%,0.56
Cc1nc(C(=O)N[C@@H](C)C(C)(C)C)c2n1CCCC2,-4%,0.7
O=C(c1ccc2ccccc2n1)N1CCC[C@H](c2nnc3ccccn23)C1,1%,-0.14
Cc1cnc(C)c(NCC[C@H](O)C(C)C)n1,0%,0.04
COc1ccccc1-c1n[nH]c(=O)n1C1CCCC1,8%,-1.61
CN(CCc1noc(C2CN(Cc3cc(Cl)ccc3F)C2)n1)S(C)(=O)=O,-9%,1.46
Cc1ccc(CN2CCn3c(nn(CC4CC4)c3=O)C2)nc1,-12%,2.1
CS(=O)(=O)C1CC2CCC(C1)N2C(=O)CCn1cnc2ccccc2c1=O (stereo not given),-29%,3.71
Oc1cccc(O)c1CNc1ccnc(C2CC2)n1,2%,-0.4
Cc1ccc(CNS(=O)(=O)c2cc(-c3ccnn3C(C)C)cs2)cc1,-11%,1.35
Cc1ccc2c(c1)NN=C(C(=O)N1CCCCCC1)S2(=O)=O,29%,-3.7
COC(=O)c1ccc(C(=O)Nc2cccnc2)[nH]1,-16%,1.86
Cc1cc(S(=O)(=O)N[C@H](c2cccnc2)C2CC2)sc1C,-12%,1.51
O[C@H]1Cc2ccccc2[C@H]1n1ccnc1-c1ccccc1Cn1cccn1,-7%,0.77
CC(C)[C@@H]1CN(C(=O)c2ccc(-n3cnnc3)nc2)CCCN1CC1CC1,-4%,0.62
Cc1nc(N)sc1CC(=O)N(C)CC1CCCC1,0%,-0.08
COCC1CN(C(=O)NCC2CCC(F)(F)CC2)CC(C)O1 (stereo not given),-2%,0.34
Cc1cc(C#N)ccc1N(C(=O)c1sc(-c2ccccc2)nc1C)C1CC1,-20%,2.08
Clc1cnc(OCC2CC=CC2)nc1,-11%,1.55
COc1cccc(NCC(=O)Nc2ncc(Cc3c(Cl)cccc3Cl)s2)c1,24%,-2.77
CN(Cc1ccc(Cl)s1)[C@H]1CCN(CC(F)(F)F)C1=O,-8%,1.15

Structure (SMILES),% Inhibition,Z score
Cc1ccncc1C(=O)N1C[C@@H]2CC[C@H]1CN(Cc1ccccn1)C2,-7%,0.77
Cc1cccc(N2CCN(c3ccc(NS(=O)(=O)c4cc(C)ccc4C)cc3C(=O)O)C[C@@H]2C)c1,-10%,0.94
CCn1cc(C(=O)OC[C@@]2(C)CCCO2)cn1,6%,-0.82
Cc1cccc(C2CCC(C(=O)NCC3CC3)CN2C(=O)c2ccc(F)cc2)c1 (stereo not given),-13%,1.27
COc1ccccc1N1CCN(C(=O)c2scc3c2OCCO3)CC1,-7%,1.28
CCn1nc(C(=O)N[C@H]2CON(C(=O)OC(C)(C)C)C2)cc1C1CC1,-6%,0.94
CC(C)(C)n1nccc1NC(=O)N[C@@H]1CCC(=O)N[C@H]1C1CCCO1 (stereo not given in full),0%,-0.02
CCNc1cc(N2CCN(C(=O)Cc3noc4ccccc34)CC2)nc(C)n1,-10%,1.75
Cc1ccc2c(C)cc(NC[C@@](C)(O)CCCO)nc2c1C,-12%,1.53
COCCN1C(=O)Cc2ccccc2[C@@H]1C(=O)N1CCN(c2cccc(C)c2)CC1,7%,-1.07
Cc1nccnc1-c1ccn(CC(=O)Nc2nn(C)c3ccccc23)n1,-3%,0.43
CCN1C[C@H](CN(C)C(=O)c2ccc(OC)nc2)Oc2ccccc21,1%,-0.17
N#Cc1nccnc1NC[C@@H](O)Cc1ccccc1,0%,0.02
CC(C)c1cnc(NC(=O)N[C@H]2CCCc3occc32)s1,3%,-0.51
CCN1C(=O)CO[C@H](C(=O)N2CC(c3ccc(F)cc3)C2)[C@H]1c1cnn(C)c1,-6%,0.61
COc1ccc([C@@]2(C)NC(=O)N(Cc3cc(C)on3)C2=O)cc1OC,-4%,0.5
O=C1NCCN2CC3(CCN(S(=O)(=O)c4cccc(F)c4)CC3)C[C@@H]12,-10%,2.02
c1ccc2c(c1)CCC(N1CCCNCC1)CC2,6%,-0.89
O=C(CCC(F)(F)F)NCCn1ccnn1,-23%,2.34
Fc1cccc(OCCN2CC(c3nc4ccccc4s3)C2)c1,11%,-1.43
COc1cc(NC(=O)CNCCN2CCOC2=O)ccc1Cl,-5%,0.51
COC(=O)c1cncc(N2CCCN(C(=O)OCC(C)C)CC2)n1,-32%,3.79

Structure (SMILES),% Inhibition,Z score
[O-][S+]1CCN(c2nc3cc(C(F)(F)F)ccc3s2)CC1,0%,-0.05
CCN1CCN(C(=O)c2cc(Br)cn2C)C[C@@]12CCOC2,-7%,1.13
O=c1[nH]c(COc2ccc(F)cc2)nc2cc(F)c(F)cc12,30%,-3.36
COc1ccc(Cl)cc1NC(=O)Cn1c(C)ncc(C(=O)NC2CC2)c1=O,0%,0.04
C[C@@](CO)(NC(=O)c1oc2ccccc2c1Cl)C1CC1,-6%,1.2
CCc1n[nH]cc1C(=O)N[C@H]1C[C@H](c2cc(=O)[nH]c(C3CC3)n2)C1,-20%,3.14
CC(C)C(=O)N1CCc2ccc(C(=O)NC3CC3)cc21,-11%,1.26
CN(Cc1ccccc1)Cc1cc(=O)[nH]c(N2CCN(C(=O)c3ccco3)CC2)n1,-9%,1.42
C#Cc1cccc(NC(=O)c2ccc(-n3ccnc3)nn2)c1,-4%,0.67
Cc1ccsc1-c1noc([C@@H]2COCCN2C)n1,87%,-14.98
O=C(Nc1ccccc1)c1nnc(C(=O)N2CCC[C@H](C(=O)NCc3ccccn3)C2)s1,-23%,2.03
COC(=O)c1cc(C2CC2)nc2c1c(=O)n(Cc1ccccc1C)c(=O)n2-c1ccccc1OC,5%,-0.77
O=C(Nc1ccc(Oc2ccc(CO)cc2)cc1)c1ccncc1F,-10%,1.24
COc1cc2c(cc1CN1CCC3(CC1)Cc1cn(nn1)CCCNC(=O)[C@H](Cc1ccccc1)NC3=O)OCO2,-8%,1.52
CC(C)Cn1cncc1CN1CCS(=O)(=O)CC1,-6%,1.02
Cn1ncnc1CCNC(=O)C[C@@H]1C[C@@H]2C=C[C@H]1C2,-11%,1.41
Cn1ccc(C(=O)N2CCC[C@H](CCc3c(F)cccc3F)C2)n1,-8%,1.17
COc1ccccc1Cc1nc(Cc2nonc2C)n(CCO)n1,-9%,1.71
COc1ccccc1NS(=O)(=O)c1cc(-c2c(C)nn3c2NC(=O)CCC3=O)ccc1OC,0%,0.02

# Source: ChEMBL document CHEMBL4888484, “Replenishing the malaria drug discovery pipeline: Screening and hit evaluation of the MMV Hit Generation Library 1 (HGL1) against asexual blood stage Plasmodium falciparum ,using a nano luciferase reporter read-out” (2022)
